From PubChem BioAssay AID1347417 (National Center for Advancing Translational Sciences (NCATS), 2020)
Among all 120,000 compounds or so, about 5,300 (4.4%) were called active. Inconclusive results, whose numbers are uncertain, are shown with a selection of clear calls. The call rests on the fitted dose curve; in most records, active means well fitted inhibition curve with a large enough effect; inconclusive means small, poorly fitted or top-dose-only effect; inactive means no such curve, though single readings can be large or run the other way. Where the call is inconclusive, the potency comes from a doubtful curve fit.

Experiment: qHTS Primary assay for Inhibitors of Plasmodium falciparum Dd2 growth in vitro; further: nearly all actives have a fitted effect of over 65% in size;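 on activity, negative = inhibition: plate controls were DMSO vehicle for no effect and reference drug for full effect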
Conditions: P. falciparum Dd2 growth, SYBR Green, 72 h; activity, negative = inhibition: at 28.9 µM (top of the series) unless noted; series mostly up to 28.9 µM
How it was run: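 Readout: SYBR Green fluorescence, 485 nm excitation, 535 nm emission, after ~16 h lysis at 37C. Before that, Dd2-infected red cells (2.5% hematocrit) grew 72 h with compound, 29 uM top final concentration.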
Potency means the concentration at half of the fitted maximal effect; tags describe the fitted curve by direction and shape.

| SMILES | Potency | activity, negative = inhibition |
| --- | --- | --- |
| COc1ccc(Cl)cc1C(=O)N1CCN(C(=O)c2nnn3c2COC(c2ccccc2)C3)CC1 (stereo not given) | inconclusive: 3.98 µM [inhibitor, partial curve, poor fit] | – |
| CC(=O)C1=C(c2ccc(C)cc2)N(C(C)=O)n2c(nnc2C2CCCCC2)S1 | inconclusive: 2.82 µM [inhibitor, single point] | – |
| CN(C)c1ccc(CN2CCC3(C2)C(=O)N(Cc2ccccc2)c2ccccc23)cc1 (stereo not given) | inactive | – |
| C=CCOC(=O)Nc1nc2c(s1)C[C@@H]1[C@](C)(CO)[C@H](O)CC[C@@]1(C)[C@@H]2CC(=O)N1CCCCC1 | inconclusive: 3.98 µM [inhibitor, single point] | – |
| CCN1CCN(CCCNC(=O)c2cc3c(s2)-c2ccccc2OC3)CC1 | inconclusive: 11.2 µM [inhibitor, single point] | – |
| CN(Cc1cn(-c2ccccc2)nn1)Cc1ccccc1-n1cccn1 | inconclusive: 11.2 µM [inhibitor, partial curve, poor fit] | – |
| CC(C)CNC(=O)c1cc(C2CC2)nc2onc(C3CCCNC3)c12 (stereo not given) | inactive | – |
| O=C(CC1=CCCCC1)N1C[C@@H](CO)[C@H](c2nc(C3CC3)no2)C1 | inconclusive: 10 µM [inhibitor, partial curve, poor fit] | – |
| COc1ccc(C(CC(=O)N2CCN(C)CC2)c2ccccc2)cc1 (stereo not given) | inactive | – |
| O=C(CSc1ncc2c(n1)-c1ccc(Cl)cc1N(Cc1ccccc1)S2(=O)=O)Nc1ccc(F)c(F)c1 | inconclusive: 10 µM [inhibitor, single point] | – |
| CCc1cccc(NC(=O)Cn2c(-c3cccc(Cl)c3)nc(C)c(CCO)c2=O)c1 | inconclusive: 8.91 µM [inhibitor, partial curve] | – |
| Cc1cnc(CC2CCNC2)n1C(C)C (stereo not given) | inactive | – |
| CC(C)CN1C(=O)c2cccn2CC1C(=O)N1CCN(C)CC1 (stereo not given) | inactive | – |
| COc1cc(C2c3c(-c4ccccc4O)n[nH]c3C(=O)N2CCO)ccc1OCc1ccccc1 (stereo not given) | active: 11.2 µM | – |
| O=C(c1cccs1)c1cn(CCOc2ccccc2F)c2ccccc12 | inconclusive: 17.8 µM [inhibitor, single point] | – |
| CCc1ccc(CN2CCC(C(=O)Nc3ccc(Oc4cccnc4)cc3)CC2)o1 | active: 11.2 µM | – |
| COCCNC(=O)c1ccc(CSc2nc3ccncc3n2Cc2ccccc2)cc1 | inconclusive: 12.6 µM [inhibitor, single point] | – |
| COc1cc(NC(=O)C23CCCC=C2N(c2ccccc2)C(=O)CC3)cc(OC)c1 (stereo not given) | inconclusive: 12.6 µM [inhibitor, partial curve, poor fit] | – |
| COc1ccc(CCC(=O)N2CCOCCNC(=O)CC2)cc1 | inactive | – |
| COC(=O)c1ccc(OCC2c3cc(OC)c(OC)cc3CCN2C(=O)C(C)C)cc1 (stereo not given) | inconclusive: 17.8 µM [inhibitor, single point] | – |
| Cc1noc(C)c1S(=O)(=O)N1CCCOCCNC(=O)[C@@H]2CCCC[C@@H]21 | inactive | – |
| CC(C)Oc1cccc2c1c(NC(=O)C1CC(=O)N(C)C1)nn2Cc1ccccc1 (stereo not given) | inactive | – |

| SMILES | Potency | activity, negative = inhibition |
| --- | --- | --- |
| COc1ccc(NC(=O)NC2CCN(C(=O)N3CC4CC(C3)[C@H]3CCCC(=O)N3C4)CC2)cc1 (stereo not given in full) | inactive | – |
| Cc1ccc(C)c(CN2C(=O)c3ccccc3S(=O)(=O)c3ccc(C(=O)N4CCN(c5ccccn5)CC4)cc32)c1 | inconclusive: 1.78 µM [inhibitor, partial curve, poor fit] | – |
| C=CCN(CC=C)C(=O)C1(Oc2cccnc2C)CCNCC1 | inconclusive: 11.2 µM [inhibitor, single point] | – |
| Cc1nn2c(c1-c1ccccc1[S+](C)(=O)[O-])N(CCCc1ccccc1)CCC2 | inconclusive: 3.55 µM [inhibitor, partial curve, poor fit] | – |
| COc1ccc(C)cc1NC(=O)CSc1nc(=O)n(Cc2ccncc2)c2c1CCC2 | inconclusive: 10 µM [inhibitor, single point] | – |
| O=C(NCCC1CCN(Cc2ccccc2)CC1)C1CCN(c2cnn(Cc3ccccc3)c(=O)c2)C1 (stereo not given) | inconclusive: 1 µM [inhibitor, partial curve, poor fit] | – |
| CCOc1ccc(NC(=O)c2c(NCc3ccc(C)o3)sc3c2CCC(C)C3)cc1 (stereo not given) | active: 11.2 µM | – |
| Cc1nnc(N2CCC(C(=O)NC3CCCCC3)CC2)c2nn(-c3ccc(Cl)cc3)c(C)c12 | inactive | – |
| CCOc1ccc(C(=O)NCC(c2ccc3c(c2)OCO3)N2CCN(c3ccccc3F)CC2)cc1 (stereo not given) | inconclusive: 20 µM [inhibitor, single point] | – |
| CC(=O)N1Cc2ccccc2OC2(CCN(C(=O)c3ccc4[nH]ccc4c3)CC2)C1 | inconclusive: 10 µM [inhibitor, single point] | – |
| COc1ccc(Cn2nnc(C(=O)Nc3cc(OC)ccc3OC)c2N)cc1 | inactive | – |
| FC(F)(F)Oc1ccc(Nc2cnc3ccc(N4CCOCC4)nn23)cc1 | active: 11.2 µM | – |
| CCOc1ccc(NC(=O)c2c(NC(=O)Cc3ccccc3)sc3c2CCC(C)C3)cc1 (stereo not given) | inconclusive: 12.6 µM [inhibitor, partial curve] | – |
| CCOC(=O)C1=C(C)N=C2SC=C(CC(=O)N3CCCC3)N2C1c1cc(C)ccc1C (stereo not given) | inconclusive: 8.91 µM [inhibitor, single point] | – |
| O=C(NCCc1ccncc1)c1coc(COc2ccc(F)cc2Cl)n1 | inconclusive: 17.8 µM [inhibitor, single point] | – |
| CN(Cc1ccccc1)C1CCCc2ccccc21 (stereo not given) | inconclusive: 10 µM [inhibitor, partial curve] | – |
| N#Cc1ccc(NC(=S)N[C@H]2CO[C@H]3[C@@H]2OC[C@H]3OC(=O)Nc2ccccc2)cc1 | inconclusive: 5.01 µM [inhibitor, full curve] | – |
| COc1ccc2c(c1)CN(C(=O)C1CC1)CC[C@H]1COC(=O)N21 | inactive | – |
| Cc1cccc(C(=O)N2CCCN(C)c3ccccc32)c1 | inconclusive: 3.98 µM [inhibitor, single point] | – |
| CCCNC(=O)N1[C@H](c2ccc(C)s2)[C@@H](C)C(=O)[C@@H](C)[C@@H]1c1ccc(C)s1 | inconclusive: 10 µM [inhibitor, partial curve, poor fit] | – |
| Cc1ccccc1CNC(=O)[C@H]1CCC[C@H]1NC(=O)c1ccncc1 | inactive | – |
| COc1ccc(-c2noc(-c3cccn3CC(=O)Nc3cc(C)c(Cl)cc3OC)n2)cc1F | inconclusive: 3.98 µM [inhibitor, partial curve, poor fit] | – |

| SMILES | Potency | activity, negative = inhibition |
| --- | --- | --- |
| COCCC(=O)N1CC(COC)C2(CCNCC2)C1 (stereo not given) | inactive | – |
| CCOC(=O)CNC(=O)N1CCC(N2C(=O)C3(CCCCC3)C2c2ccncc2)CC1 (stereo not given) | inconclusive: 12.6 µM [inhibitor, single point] | – |
| OC[C@@H]1CN(Cc2ccc(F)cc2)C[C@H]1c1nc(-c2ccncc2)no1 | inconclusive: 11.2 µM [inhibitor, single point] | – |
| COc1ccccc1CNC(=O)c1nnn2cc(C)[nH]c(=O)c12 | inconclusive: 20 µM [inhibitor, partial curve, poor fit] | – |
| O=C(C1CCCC1)N1CCN(c2nc3ncccc3o2)CC1 | inconclusive: 8.91 µM [inhibitor, partial curve] | – |
| CN(Cc1cccc(C(F)(F)F)c1)C(=O)C1(c2ccc(Cl)cc2)CCOCC1 | inconclusive: 10 µM [inhibitor, partial curve, poor fit] | – |
| Cc1ccc(CN2C(=O)NC3(CCCN(C(=O)c4ccc(C#N)cc4)C3)C2=O)cc1 (stereo not given) | inactive | – |
| CCC(Cc1ccccc1)NC(=O)Cn1ncc2c3ccccc3n(Cc3ccccc3)c2c1=O (stereo not given) | inconclusive: 17.8 µM [inhibitor, partial curve, poor fit] | – |
| CCOc1ccc(C(=O)c2cn(Cc3ccc(Cl)cc3)c3cc(OC)c(OC)cc3c2=O)cc1 | active: 7.94 µM | – |
| Cc1noc(C2CC3(CCN(C(=O)C(C)C)CC3)CN2C)n1 (stereo not given) | inactive | – |
| Cc1nnc2c(Nc3cccc(O)c3)nc3ccccc3n12 | – | inconclusive: -42.2% [inhibitor] [at 5.79 µM] |
| COCCNC(=O)[C@H]1CN2CC[C@H]1C[C@@H]2Cn1cc(-c2ccccc2)nn1 | inactive | – |
| O=C(Cc1ccc(F)cc1)NCCn1ccn2nc(-c3ccc(F)cc3)cc2c1=O | inconclusive: 20 µM [inhibitor, single point] | – |
| c1ccc(OCC2CN(Cc3ccc4[nH]ccc4c3)CC23CN(c2ccccc2)C3)cc1 (stereo not given) | inconclusive: 3.98 µM [inhibitor, partial curve, poor fit] | – |
| CNC(=O)[C@@H]1C[C@H](Oc2ccccc2)CN1C(=O)CCc1c[nH]c2ccccc12 | inconclusive: 8.91 µM [inhibitor, single point] | – |
| COCCN1CC[C@H]2N(Cc3nc4c(cnn4C)c(=O)[nH]3)CCC[C@]2(C(=O)O)C1 | inactive | – |
| Cc1nc(-c2ccc(C(F)(F)F)cc2)cc([C@H]2CN3CC[C@H]2C[C@@H]3CNC(=O)C(C)(C)C)n1 | inconclusive: 0.794 µM [inhibitor, partial curve, poor fit] | – |
| Cc1noc(C)c1CN1CCC2(CC1)COCCN2C(=O)OCc1ccccc1 | inconclusive: 10 µM [inhibitor, partial curve, poor fit] | – |
| O=C1CCCCC(CNC(=O)c2ccc3ccccc3n2)N1 (stereo not given) | inconclusive: 3.98 µM [inhibitor, single point] | – |
| O=C1NCCOCCCN(C(=O)C2CC2)[C@H]2CCCC[C@@H]12 | inactive | – |
| O[C@@H]1CC(CNCC2CCCC2)(COc2cccnc2)C[C@@H]1O (stereo not given in full) | inconclusive: 31.6 µM [inhibitor, single point] | – |
